Results as given in PMC10755785 (The Journal of Biological Chemistry, 2023).

Legend:
Experiment in all cases: pull-down
RssB^F129A;S131A = target: T1, RssB^F129A;S131A (Escherichia coli, UniProt P0AEV1 1-337, F129A | S131A)
T1 sequence: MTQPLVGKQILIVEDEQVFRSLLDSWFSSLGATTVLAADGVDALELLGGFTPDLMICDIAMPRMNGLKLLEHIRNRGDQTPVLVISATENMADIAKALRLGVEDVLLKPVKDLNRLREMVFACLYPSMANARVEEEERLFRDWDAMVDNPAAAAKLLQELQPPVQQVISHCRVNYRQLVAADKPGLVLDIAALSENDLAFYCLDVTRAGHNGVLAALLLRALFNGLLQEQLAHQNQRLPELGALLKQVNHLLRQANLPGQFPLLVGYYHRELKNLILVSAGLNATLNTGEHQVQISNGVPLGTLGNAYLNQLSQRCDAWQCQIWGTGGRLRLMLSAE

RssB^R99D = target: T2, RssB^R99D (Escherichia coli, UniProt P0AEV1 1-337, R99D)
T2 sequence: T1 sequence with R99D, A129F, A131S

RssB^D104A = target: T3, RssB^D104A (Escherichia coli, UniProt P0AEV1 1-337, D104A)
T3 sequence: T1 sequence with D104A, A129F, A131S

Measured: binding result

B1: σ^s (RpoS), His-tagged (natural protein)
chain: not shown
binds: all assays above

Where a chain is given by its changes, count along the chain named.
